In PubChem BioAssay AID485344 (National Center for Advancing Translational Sciences (NCATS), 2010):
About 6,900 (2%) of roughly 340,000 compounds were called active. Rule as the data show it: active = inhibition above about 30%; inactive = below that, where a call was filed. Only a part is listed here, and it is no random draw. Entries without a call were filed so in the source.

Biological target: D(2) dopamine receptor (Homo sapiens) (UniProt P14416)
Assay: HTS Assay for Allosteric Antagonists of the Human D2 Dopamine Receptor: Primary Screen for Antagonists; also: 0% is about no effect
Settings: HEK293 TREx D2 cells, calcium flux, dopamine EC80; at 10 µM; stronger effect = higher value
Procedure, shortened: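 Tetracycline-induced HEK293 T-REx cells expressing D2 force-coupled to calcium signalling were dye-loaded, exposed to compound for 180 s, then challenged with an EC80 of dopamine; calcium flux was followed kinetically for a further 180 s.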

UniProt P14416, sequence (P14416 whole entry, looked up): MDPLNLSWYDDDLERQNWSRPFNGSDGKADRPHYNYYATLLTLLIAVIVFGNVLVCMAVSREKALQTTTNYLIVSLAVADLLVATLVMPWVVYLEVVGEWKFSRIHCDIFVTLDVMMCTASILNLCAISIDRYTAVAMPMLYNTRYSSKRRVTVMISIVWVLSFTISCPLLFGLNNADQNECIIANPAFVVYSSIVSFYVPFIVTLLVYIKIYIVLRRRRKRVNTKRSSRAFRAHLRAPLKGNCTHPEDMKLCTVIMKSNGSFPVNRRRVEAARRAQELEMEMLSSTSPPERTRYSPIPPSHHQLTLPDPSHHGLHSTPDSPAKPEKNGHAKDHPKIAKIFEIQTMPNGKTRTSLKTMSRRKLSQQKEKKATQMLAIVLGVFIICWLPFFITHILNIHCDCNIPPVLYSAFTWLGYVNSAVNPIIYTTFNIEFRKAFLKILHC

Row | SMILES | inhibition
1 | OC1(c2ccc3c(c2)OCO3)CCN(Cc2ccc(F)cc2)CC1 | active: 73%
2 | Cc1ccc(CNC(=O)c2ccc(Cn3c(=O)c4ccccc4n(CC(=O)Nc4c(C)cc(C)cc4C)c3=O)cc2)cc1 | 6.8%
3 | O=C(NCC(c1cccs1)S(=O)(=O)c1cccs1)c1cccc(F)c1 (configuration not stated) | 8.09%
4 | Cc1ccccc1CSc1ccc(-c2cccs2)nn1 | 10.8%
5 | Cc1cccc(NC(=O)c2cc(S(=O)(=O)N3CCCCCC3)cn2C)c1C | -0.335%
6 | Cc1ccc(NC(=O)Cn2cc(C(=O)C3CC3)c3ccccc32)cc1C | 4.69%
7 | Cc1ccc(Cc2cn3cc(-c4ccc(F)cc4)nc3s2)cc1 | -7.78%
8 | COc1ccc(-c2c(C)c3ccc(O)c(CN4CCCC4)c3oc2=O)cc1OC | -9.41%
9 | COc1cccc(-c2cn3ncsc3n2)c1 | -2.09%
10 | Cc1ccc(OCCSc2nc3ccc(NC(=O)c4ccc(F)cc4)cc3s2)cc1 | -17.1%
11 | CCCCNC(=S)N(C)/N=C/c1ccc(F)cc1 | active: 90.6%
12 | CCOC(=O)C(CC)Sc1c(CC)cnc2c1c(=O)n(C)c(=O)n2C (configuration not stated) | 0.402%
13 | Cc1cccc(C(C)C)c1NC(=O)C(NS(=O)(=O)c1cccc2nsnc12)c1ccccc1 (configuration not stated) | 3.02%
14 | CCc1ccc(CNC(=O)C2CCCN(S(=O)(=O)c3ccc4c(ccn4C)c3)C2)cc1 (configuration not stated) | -22.7%
15 | COc1ccc(CNC(=O)CCc2nc(-c3ccc(OC)cc3)no2)cc1 | -12.3%
16 | CC(=O)N1c2ccc(S(=O)(=O)N3CCC(C(=O)Nc4cccc(Cl)c4)CC3)cc2CC1C (configuration not stated) | active: 41.2%
17 | Cc1cc(C)c2c(n1)sc1c(=O)n(-c3ccccc3C(F)(F)F)nnc12 | 28.3%
18 | CCSc1nc2c([nH]c3ccccc32)c(=O)n1-c1ccc(F)cc1 | 27.6%
19 | CCC(=O)N1CCc2cc(CNS(=O)(=O)c3cccs3)ccc21 | -18.9%
20 | CCCCOc1ccc(CNC(=O)c2ccc3c(c2)N(C)C(=O)C2CCCCN32)cc1 (configuration not stated) | -2.52%
21 | CCOc1ccc(Nc2oc(/C=C/c3cccc(OC)c3)nc2C#N)cc1 | -8.5%

Row | SMILES | inhibition
22 | O=C(NC1CCN(Cc2ccccc2)CC1)c1cc(Br)c(Br)[nH]1 | active: 78.3%
23 | Clc1cccc(-c2cc3nc4c(c(N5CCN(c6cnccn6)CC5)n3n2)CCCC4)c1 | active: 41.2%
24 | CCCCCn1c(CCNC(=O)c2cccc(C)c2)nc2ccccc21 | 2.58%
25 | Cc1c(Cl)cccc1Nc1nc2ccc(C(=O)c3ccccc3)cc2n2cnnc12 | 5.41%
26 | Cc1ccc(CNC(=O)CN2C(=O)C3(SCC(=O)N3c3ccc(F)cc3)c3ccccc32)cc1 (configuration not stated) | 0.698%
27 | Cc1ccc(NC(=O)Cn2c(-c3cncs3)nc3ccccc32)c(Br)c1 | 14.5%
28 | COc1ccc2c(c1)Cc1sc(NC(=O)c3cccc(Br)c3)nc1-2 | -24.4%
29 | CC(=O)N1CCc2c(sc3c2c(=O)n(Cc2ccccc2)c(=O)n3Cc2cc(C)ccc2C)C1 | -19.6%
30 | CC1CN(C(=O)N2CCC(C(=O)NCCCc3ccccc3)CC2)c2ccccc2O1 (configuration not stated) | 21.7%
31 | Cc1ccccc1/C=C(\C#N)c1nc(-c2ccc(Cl)cc2)cs1 | -9.38%
32 | Cc1csc2nc(-c3ccc(NS(=O)(=O)c4cc(F)ccc4F)cc3)cn12 | -16.2%
33 | CC1(C)Cc2cccc(OCC(O)CN3CCN(c4ccccn4)CC3)c2O1 (configuration not stated) | active: 60.3%
34 | COc1ccc(CCN2C(=O)CN(C3CCCCCC3)C(=O)C2c2ccc(OC(C)C)c(OC)c2)cc1OC (configuration not stated) | 8.9%
35 | CN(C(=O)c1ccc2c(Cl)c3c(nc2c1)CCC3)c1ccccc1F | -15.7%
36 | COc1ccccc1C(=O)Nc1ccc(C(=O)OCc2cc(=O)n3nc(C)sc3n2)cc1 | 4.15%
37 | CCN(CC)C(=O)Cn1c(=O)n(-c2ccccc2)c(=O)c2c3c(sc21)CCC3 | -11.1%
38 | NS(=O)(=O)c1ccc(NC(=O)CSc2ccc3ccccc3n2)cc1 | -24.5%
39 | CC1CCC(C(=O)NC(C(=O)OCC(=O)c2ccc(Br)cc2)C(C)C)CC1 (configuration not stated) | 6.49%
40 | Cc1ccc(CNS(=O)(=O)c2cc3c(cc2Cl)NC(=O)CO3)o1 | 3.77%
41 | Cc1ccc(/C=C/c2onc(C)c2S(=O)(=O)N2CCC(C(=O)Nc3ccc(Br)c(C)c3)CC2)cc1 | -12.1%
42 | CCC(CC)C(=O)Nc1cc(-c2ccccc2F)nn1-c1ccccc1 | -0.759%

Row | SMILES | inhibition
43 | CNS(=O)(=O)c1cn(CC(=O)Nc2ccc(OC)cc2OC)cc1S(=O)(=O)NC | -7.47%
44 | Cc1cccc(CN2C(=O)c3ccccc3Sc3ccc(C(=O)NC4CCCCC4)cc32)c1 | -4.79%
45 | Cn1c(SCC(=O)NCCNC(=O)CSc2nnc(C(F)(F)F)n2C)nnc1C(F)(F)F | active: 32.6%
46 | Cc1cccc(CNC(=O)C2CCC(CNS(=O)(=O)c3ccc4c(c3)CCCC(=O)N4)CC2)c1 (configuration not stated) | 25%
47 | Cc1cc(=O)oc2c(C)c(OCC(=O)Nc3cccnc3)ccc12 | active: 35.8%
48 | COc1ccc(OC(=O)c2nc(SCc3ccccc3F)ncc2Cl)cc1 | -1.34%
49 | Cc1ccc(NC(=O)Cn2c(=O)n(Cc3ccco3)c(=O)c3oc4ccccc4c32)cc1C | 4.56%
50 | CN(C)c1ccc(NC(=O)CCN2CCN(c3ccccn3)CC2)cc1 | active: 84.6%
51 | CCC(C)NC(=O)c1nn(-c2ccc(C)cc2)nc1CO (configuration not stated) | 12.2%
52 | CCn1c(SCC(=O)Nc2ccccc2C(=O)OC)nc2ccsc2c1=O | 7.88%
53 | Cc1ccc(-c2cc(C(=O)Oc3ccc(C#N)cc3)no2)cc1 | -3.53%
54 | CCC(=O)NNc1ncnc2c1cnn2-c1ccc(C)c(Cl)c1 | 19.7%
55 | Cc1nc2ccccc2c(=O)n1-c1ccc(NC(=O)c2ccccc2[N+](=O)[O-])cc1 | 19.9%
56 | CCN(Cc1ccccc1)C(=O)Cn1c(=O)n(-c2ccccc2)c(=O)c2c1c1cc(C)ccc1n2C | -5.21%
57 | CCc1ccc(CSc2nc(-c3ccccc3F)nc3c2Cc2c(CO)cnc(C)c2O3)cc1 | -0.443%
58 | CC(CCc1ccccc1)NC(=O)Cn1ncc2c3ccccc3n(Cc3ccccc3F)c2c1=O (configuration not stated) | 6.6%
59 | CCN(C(=O)C1CCN(S(=O)(=O)c2cc(Br)cc3c2N(C(C)=O)CC3)CC1)c1cccc(C)c1 | -0.0327%
60 | O=C(CSc1nccn1-c1cccc(Cl)c1)Nc1ccc2c(c1)OCO2 | -12.9%
61 | O=C1CC(N2CCN(c3cccc(C(F)(F)F)c3)CC2)C(=O)N1c1ccccc1F (configuration not stated) | active: 32.7%
62 | CCC(=O)C1=C(c2ccc(F)cc2)N(C(=O)CC)n2c(nnc2-c2ccc(OC)cc2)S1 | -3.37%
